The source gives no read counts; variants with many changes may rest on few reads.

The labels stand for the following.
B1: CPEB3 Ribozyme (parent)
chain: UAACAGGGGGCCACAGCAGAAGCGUUCACGUCGCAGCCCCUGUCAGAUUCUGGUGAAUCUGCGAAUUCUGCUGUAUAUCUC

Variants of B1 are the subject of the data set. The data set can be described thus: self-cleavage, relative activity (ratio to wild type); higher = more cleavage; in vitro, sequencing. The method in brief:
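For each CPEB3 ribozyme variant, relative activity is its cleaved/total read fraction divided by the unmutated ribozyme's. Barcoded error-prone PCR libraries were transcribed by T7 RNA polymerase (5 hours, 37°C) and held in DNase I for 15 min before an EDTA stop, with cleavage occurring throughout. Template-switching reverse transcription and Illumina sequencing were used to read the RNAs. A 5-read minimum applied, and results are the mean of three batches.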
As to G8U A20U A21C C40U U60C, the self-cleavage came to 0.05.

For the variant G8C C14A A35G U51A U80C, the self-cleavage came to 0.12.

With G9A G10C A20U A64G U72C U78A, the self-cleavage is 0.05.

With G9A U26C U49C, the self-cleavage was found to be 0.22.

For the variant G9A G22C G53A A77G, the self-cleavage came to 0.04.

For the variant G9A A15U A45G U51C U58C U66C U80C, the self-cleavage was determined as 0.05.

For G8A U26C U41C, the self-cleavage worked out at 0.3.

On to G8U A15U U25C U43G A45U A57G, for which the self-cleavage was 0.03.

For the variant G9U U43C A56U U66C G70A U78C, the self-cleavage was determined as 0.08.

Regarding G8U A45G U58G, the self-cleavage came out at 0.3.

Take G8A U51C A64G: the self-cleavage was determined as 0.06.

Turning to G9U A15U U41C U67A, the self-cleavage was 0.09.

Take G8U U31C U49C: the self-cleavage is 0.32.

On to G9A U43C U49C U74A, for which the self-cleavage was 0.21.

As for G8A U41G A56G U74C, the self-cleavage came to 0.42.

As for G8U A28G U43C U48C G55A G70C, the self-cleavage amounted to 0.22.

For the variant G9U C29U U51C U67C, the self-cleavage came to 0.06.

On to G9U C27A C32U G46U U51C C62A, for which the self-cleavage is 0.03.

As to G8U A13U U41A U66C U67G A77U, the self-cleavage was found to be 0.04.

For G9A A13C C14U U41A A56C, the self-cleavage is 0.17.

G8A U48A U80C: the self-cleavage came out at 0.08.

As for G8U A45G U48C U80A, the self-cleavage was determined as 0.05.

For G8U A18G C39G A57G U60A, the self-cleavage worked out at 0.03.

Take G8A U41C A57G U76C: the self-cleavage was found to be 0.1.

With G9C A15U U41C U58C U69C U80A, the self-cleavage was 0.09.

Turning to G9C A56G U74C, the self-cleavage is 0.12.

Turning to G10A A13U A18G C29U U60A, the self-cleavage worked out at 0.1.

Regarding G8U A35G C44U U80C, the self-cleavage turned out to be 0.06.

For G9U A20U U48C G73U, the self-cleavage worked out at 0.05.

For the variant G9C A20U U51C U54G, the self-cleavage came to 0.05.

Regarding G9A U48C U78C U80C, the self-cleavage came to 0.06.

As for G8C A21G A35U A47C U48C U67C, the self-cleavage stood at 0.03.

Regarding G10A A15G U54A U58A, the self-cleavage was determined as 0.18.

In the case of G10A A13U U25C G33A U54C, the self-cleavage is 0.07.

Turning to G9C U31G U41G A45U U78C, the self-cleavage came out at 0.1.

For G9A C17A G22U U26C, the self-cleavage was found to be 0.2.

Take G9A A20G U43A U72C: the self-cleavage was 0.42.

On to G8U C14G U67C U69C, for which the self-cleavage was 0.06.

As for G10A A18G U26C U43G, the self-cleavage worked out at 0.14.

For the variant G9U U31C A35G A45G U78C, the self-cleavage amounted to 0.19.

For the variant G9U A15G A18U A35U U54C A64G, the self-cleavage turned out to be 0.05.

On to G8A U58C U69A, for which the self-cleavage stood at 0.13.

For G10A A13G A15U C17U U41C G46U, the self-cleavage was found to be 0.26.

For G8U A56U G63A U69C U76A, the self-cleavage came to 0.04.

G8U A13G G63U: the self-cleavage amounted to 0.34.

Turning to G8U A57G A64G, the self-cleavage worked out at 0.11.

G9U U54C G61A U67A C68A: the self-cleavage was determined as 0.16.

For G8A U41C A57G U74C, the self-cleavage worked out at 0.1.

For the variant G8C A47U A77C, the self-cleavage is 0.13.

G8U U26C U31C A64G G70C: the self-cleavage was 0.08.

As to G9A U51A A57G U78C, the self-cleavage came out at 0.07.

As for G8U C11U A18U U49A C62U A64U U74C, the self-cleavage is 0.03.

Turning to G9A A18U U60C A64G, the self-cleavage came out at 0.05.

Take G9A A15G A21G G36C A47G U80A: the self-cleavage was 0.02.

With G9U U58C U66C G73A, the self-cleavage amounted to 0.06.

Consider G9A A13C A20G A21G U41A A65G, for which the self-cleavage was found to be 0.06.

For the variant G10A A18U U72C U80C, the self-cleavage is 0.05.

For the variant G9A A18U A20G U66C, the self-cleavage amounted to 0.28.

For the variant G10A A18G U26C U41G A45G, the self-cleavage worked out at 0.18.

Turning to G9U A13G C39U, the self-cleavage is 0.07.

In the case of G10A A15C U67C, the self-cleavage was determined as 0.19.

Regarding G8U A15U A20G A56G U67A U74A U76A, the self-cleavage is 0.02.

In the case of G8C U26C U67C, the self-cleavage amounted to 0.14.

Turning to G8C A65G G73U U80A, the self-cleavage is 0.06.

For G9A A15G C37U, the self-cleavage is 0.21.

On to G9C G19C U60C G61U C68U, for which the self-cleavage was 0.03.

G8U C50U U54C U58C U60C C81A: the self-cleavage was determined as 0.11.

As for G9A A28U C29G U54C, the self-cleavage came out at 0.02.

Turning to G9A A21G U31A A64G U69C U76C, the self-cleavage worked out at 0.08.

As to G9A G36A U51G A65G, the self-cleavage was 0.07.

Consider G8U A45G U48C G53U U72C, for which the self-cleavage stood at 0.07.

For the variant G8U A13G G33A U60A U78C, the self-cleavage was found to be 0.07.

With G9U U26C U41A U43A A77G U80C, the self-cleavage worked out at 0.04.

With G9A U31C U78C, the self-cleavage was 0.04.

For the variant G9A C29U U67C, the self-cleavage turned out to be 0.12.

For the variant G9A C23U A35G U41A U58C G70A, the self-cleavage was 0.17.

As for G9A A20G U66C, the self-cleavage turned out to be 0.07.

Turning to G8U C14U A15G C59G U78A, the self-cleavage was 0.04.

Consider G9A U31C U51C U54C, for which the self-cleavage was found to be 0.17.

As for G9U A21G U60G U78C, the self-cleavage is 0.06.

In the case of G9A C39U U69C A75U U76A, the self-cleavage was found to be 0.05.

In the case of G9A A13U U26G U41A A45G U51C, the self-cleavage was determined as 0.05.

With G9U A18G A35C U72C U74A U80C, the self-cleavage was 0.34.

As to G9A U25C G61A A64G A65U U78C, the self-cleavage amounted to 0.05.

Values taken from the RNAGym collection of RNA variant scans (doi:10.1093/nar/gkz1192).
